According to publication PMC6656775, “Soluble and membrane-bound protein carrier mediate direct copper transport to the ethylene receptor family” (Scientific Reports, 2019):
No constants are given. Whether binding was seen depends on the method and setting. Binding seen in cells or lysates may run through a third protein. Some results given as binding are weak or reduced against the parent protein; the word gives no strength. Sequences can lack the tags named with a protein.

B1: ANTIOXIDANT-1 (ATX1), BiFC fusion (protein, UniProt Q94BT9 1-76)
chain: MSQTVVLRVAMTCEGCVGAVKRVLGKMEGVESFDVDIKEQKVTVKGNVQPDAVLQTVTKTGKKTAFWEAEGETAKA
B2: COPPER TRANSPORT PROTEIN (CCH), BiFC fusion (protein, UniProt O82089 1-121)
chain: MAQTVVLKVGMSCQGCVGAVNRVLGKMEGVESFDIDIKEQKVTVKGNVEPEAVFQTVSKTGKKTSYWPVEAEAEPKAEADPKVETVTETKTEAETKTEAKVDAKADVEPKAAEAETKPSQV
B3: RESPONSIVE-TO-ANTAGONIST-1 (RAN1), full-length, BiFC fusion (protein, UniProt Q9S7J8 1-1001)
chain: MAPSRRDLQLTPVTGGSSSQISDMEEVGLLDSYHNEANADDILTKIEEGRDVSGLRKIQVGVTGMTCAACSNSVEAALMNVNGVFKASVALLQNRADVVFDPNLVKEEDIKEAIEDAGFEAEILAEEQTQATLVGQFTIGGMTCAACVNSVEGILRDLPGVKRAVVALSTSLGEVEYDPNVINKDDIVNAIEDAGFEGSLVQSNQQDKLVLRVDGILNELDAQVLEGILTRLNGVRQFRLDRISGELEVVFDPEVVSSRSLVDGIEEDGFGKFKLRVMSPYERLSSKDTGEASNMFRRFISSLVLSIPLFFIQVICPHIALFDALLVWRCGPFMMGDWLKWALVSVIQFVIGKRFYVAAWRALRNGSTNMDVLVALGTSASYFYSVGALLYGAVTGFWSPTYFDASAMLITFVLLGKYLESLAKGKTSDAMKKLVQLTPATAILLTEGKGGKLVGEREIDALLIQPGDTLKVHPGAKIPADGVVVWGSSYVNESMVTGESVPVSKEVDSPVIGGTINMHGALHMKATKVGSDAVLSQIISLVETAQMSKAPIQKFADYVASIFVPVVITLALFTLVGWSIGGAVGAYPDEWLPENGTHFVFSLMFSISVVVIACPCALGLATPTAVMVATGVGATNGVLIKGGDALEKAHKVKYVIFDKTGTLTQGKATVTTTKVFSEMDRGEFLTLVASAEASSEHPLAKAIVAYARHFHFFDESTEDGETNNKDLQNSGWLLDTSDFSALPGKGIQCLVNEKMILVGNRKLMSENAINIPDHVEKFVEDLEESGKTGVIVAYNGKLVGVMGIADPLKREAALVVEGLLRMGVRPIMVTGDNWRTARAVAKEVGIEDVRAEVMPAGKADVIRSLQKDGSTVAMVGDGINDSPALAAADVGMAIGAGTDVAIEAADYVLMRNNLEDVITAIDLSRKTLTRIRLNYVFAMAYNVVSIPIAAGVFFPVLRVQLPPWAAGACMALSSVSVVCSSLLLRRYKKPRLTTVLKITTE
B4: NterRAN1 (amino acids 1–298), BiFC fusion (domain or fragment, UniProt Q9S7J8 1-298)
chain: MAPSRRDLQLTPVTGGSSSQISDMEEVGLLDSYHNEANADDILTKIEEGRDVSGLRKIQVGVTGMTCAACSNSVEAALMNVNGVFKASVALLQNRADVVFDPNLVKEEDIKEAIEDAGFEAEILAEEQTQATLVGQFTIGGMTCAACVNSVEGILRDLPGVKRAVVALSTSLGEVEYDPNVINKDDIVNAIEDAGFEGSLVQSNQQDKLVLRVDGILNELDAQVLEGILTRLNGVRQFRLDRISGELEVVFDPEVVSSRSLVDGIEEDGFGKFKLRVMSPYERLSSKDTGEASNMFRR
B5: CterRAN1 (amino acids 299–1001), BiFC fusion (domain or fragment, UniProt Q9S7J8 299-1001)
chain: FISSLVLSIPLFFIQVICPHIALFDALLVWRCGPFMMGDWLKWALVSVIQFVIGKRFYVAAWRALRNGSTNMDVLVALGTSASYFYSVGALLYGAVTGFWSPTYFDASAMLITFVLLGKYLESLAKGKTSDAMKKLVQLTPATAILLTEGKGGKLVGEREIDALLIQPGDTLKVHPGAKIPADGVVVWGSSYVNESMVTGESVPVSKEVDSPVIGGTINMHGALHMKATKVGSDAVLSQIISLVETAQMSKAPIQKFADYVASIFVPVVITLALFTLVGWSIGGAVGAYPDEWLPENGTHFVFSLMFSISVVVIACPCALGLATPTAVMVATGVGATNGVLIKGGDALEKAHKVKYVIFDKTGTLTQGKATVTTTKVFSEMDRGEFLTLVASAEASSEHPLAKAIVAYARHFHFFDESTEDGETNNKDLQNSGWLLDTSDFSALPGKGIQCLVNEKMILVGNRKLMSENAINIPDHVEKFVEDLEESGKTGVIVAYNGKLVGVMGIADPLKREAALVVEGLLRMGVRPIMVTGDNWRTARAVAKEVGIEDVRAEVMPAGKADVIRSLQKDGSTVAMVGDGINDSPALAAADVGMAIGAGTDVAIEAADYVLMRNNLEDVITAIDLSRKTLTRIRLNYVFAMAYNVVSIPIAAGVFFPVLRVQLPPWAAGACMALSSVSVVCSSLLLRRYKKPRLTTVLKITTE

The binders below were run against T1, ETR1^1–157, BiFC fusion (A. thaliana) (UniProt P49333) (assay: split reporter; BiFC (split YFP, 2in1 vectors with RFP infiltration control) in transiently transformed N. benthamiana leaves, confocal microscopy; full-length ETR1 constructs under an inducible promoter, ERS1 and ETR1^1–157 constructs constitutive (d35S)).
T1 sequence: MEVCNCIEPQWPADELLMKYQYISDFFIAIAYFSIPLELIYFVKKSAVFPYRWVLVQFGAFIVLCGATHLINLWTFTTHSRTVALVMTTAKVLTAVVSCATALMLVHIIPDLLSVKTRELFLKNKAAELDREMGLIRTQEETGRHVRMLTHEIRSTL

Q: For B1, which binding is on record?
A: Its binding is “binds”.

Q: B2 was tested. Which binding did it give?
A: Its binding is “binds”.

Q: With B3 as the binder, how does the binding read?
A: The binding was “binds”.

Q: With B4 as the binder, how does the binding read?
A: The binding was “binds”.

These binders were tested against T2, RESPONSIVE-TO-ANTAGONIST-1 (RAN1), full-length, BiFC fusion (A. thaliana) (UniProt Q9S7J8) in the same assay as above.
T2 sequence: B3 chain

Q: Which binding does the source give for B1 here?
A: The binding was “binds”.

Q: How did the binding turn out when B2 was run?
A: Its binding is “binds”.

What follows are binders tested against T3, ethylene receptor ERS1, BiFC fusion (UniProt Q38846) in the same assay as above.
T3 sequence: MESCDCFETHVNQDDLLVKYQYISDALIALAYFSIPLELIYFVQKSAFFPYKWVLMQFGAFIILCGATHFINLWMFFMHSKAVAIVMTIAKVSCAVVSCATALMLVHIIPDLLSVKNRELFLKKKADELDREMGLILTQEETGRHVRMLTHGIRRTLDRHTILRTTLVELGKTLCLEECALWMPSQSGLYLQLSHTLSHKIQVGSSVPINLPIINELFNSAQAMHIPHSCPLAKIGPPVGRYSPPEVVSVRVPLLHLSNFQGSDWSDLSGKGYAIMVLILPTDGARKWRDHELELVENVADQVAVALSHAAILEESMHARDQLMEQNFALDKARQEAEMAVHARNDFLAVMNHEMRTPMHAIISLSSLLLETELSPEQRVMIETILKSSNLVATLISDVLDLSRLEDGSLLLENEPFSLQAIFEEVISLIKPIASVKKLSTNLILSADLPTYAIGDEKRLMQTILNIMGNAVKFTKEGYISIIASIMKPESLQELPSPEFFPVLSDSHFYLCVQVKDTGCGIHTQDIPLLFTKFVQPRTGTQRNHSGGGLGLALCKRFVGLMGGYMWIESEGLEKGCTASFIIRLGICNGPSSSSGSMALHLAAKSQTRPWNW

Q: How did the binding turn out when B1 was run?
A: The binding was “binds”.

Q: For B2, which binding is on record?
A: Its binding is “binds”.

Q: With B3 as the binder, how does the binding read?
A: Its binding is “binds”.

Q: How did the binding turn out when B4 was run?
A: The binding was “binds”.

Q: B5 was tested. Which binding did it give?
A: Its binding is “no binding”.

Each binder was assayed against T4, ethylene receptor ETR1, full-length, BiFC fusion (A. thaliana) (UniProt P49333) in the same assay as above.
T4 sequence: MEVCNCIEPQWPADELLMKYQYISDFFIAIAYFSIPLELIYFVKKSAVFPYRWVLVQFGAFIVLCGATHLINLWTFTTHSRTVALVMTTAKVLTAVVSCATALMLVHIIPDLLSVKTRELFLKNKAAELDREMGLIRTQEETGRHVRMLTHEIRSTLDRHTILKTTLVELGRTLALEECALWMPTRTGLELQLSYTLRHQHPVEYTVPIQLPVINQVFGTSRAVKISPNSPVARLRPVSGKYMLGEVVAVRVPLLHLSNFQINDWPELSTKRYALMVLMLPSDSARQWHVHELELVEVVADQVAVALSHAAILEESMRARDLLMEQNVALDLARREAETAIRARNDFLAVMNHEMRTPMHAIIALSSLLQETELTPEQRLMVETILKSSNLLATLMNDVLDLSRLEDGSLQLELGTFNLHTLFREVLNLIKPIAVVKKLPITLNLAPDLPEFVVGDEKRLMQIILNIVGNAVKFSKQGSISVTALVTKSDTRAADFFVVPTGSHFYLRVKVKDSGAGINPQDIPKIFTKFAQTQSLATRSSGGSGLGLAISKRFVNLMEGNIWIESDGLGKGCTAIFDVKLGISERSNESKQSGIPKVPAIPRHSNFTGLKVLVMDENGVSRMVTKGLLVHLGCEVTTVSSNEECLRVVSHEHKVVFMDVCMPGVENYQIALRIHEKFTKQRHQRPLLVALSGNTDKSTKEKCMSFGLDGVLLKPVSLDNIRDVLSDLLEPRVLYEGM

Q: Which binding does the source give for B1 here?
A: Its binding is “binds”.

Q: With B2 as the binder, how does the binding read?
A: The binding was “binds”.

Q: With B3 as the binder, how does the binding read?
A: The binding was “binds”.

Q: For B4, which binding is on record?
A: Its binding is “binds”.

Q: How did the binding turn out when B5 was run?
A: Its binding is “no binding”.
